Laboratory results published in the supplement of paper PMC9446081.
Hit rate of the full screen: of about 39,000 compounds, about 220 (0.56%) showed activity. This is one part of the list.

The molecules below were run on Escherichia coli K-12 BW25113 (assay: relative growth (OD600 normalised to plate interquartile mean) (fraction); higher = less growth inhibition, active = 0.2 or less). Settings: 50 µM; LB; incubation time: overnight (16-24 h).
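Also: static incubation at 37 °C against the wild-type strain, values averaged over two biological replicates.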

Row | Compound | relative growth
1 | CCCN(C)C[C@H]1OCCCC[C@@H](C)Oc2ccc(NC(=O)Nc3ccc(OC)cc3)cc2C(=O)N([C@@H](C)CO)C[C@H]1C | inactive: 0.93
2 | COc1ccc(NC(=O)N(C)C[C@@H]2Oc3ccc(NC(=O)Cn4cnnn4)cc3C(=O)N([C@H](C)CO)C[C@H]2C)cc1 | inactive: 0.992
3 | COc1ccccc1-c1ccc2c(c1)O[C@@H](CN(C)C(=O)c1ccncc1)[C@@H](C)CN([C@H](C)CO)S2(=O)=O | inactive: 0.996
4 | Cc1noc(C)c1S(=O)(=O)Nc1ccc2c(c1)C(=O)N([C@H](C)CO)C[C@H](C)[C@@H](CN(C)C(=O)Nc1cccc3ccccc13)OCCCC[C@@H](C)O2 | inactive: 0.986
5 | C[C@@H]1CCCCO[C@@H](CN(C)Cc2ccc(C(F)(F)F)cc2)[C@H](C)CN([C@@H](C)CO)C(=O)c2cc(NC(=O)Nc3ccc(F)cc3)ccc2O1 | inactive: 1.01
6 | COCCOC(=O)N1C(=O)[C@@]2(c3cc(C#CC4(O)CCCCCC4)ccc31)[C@H](c1ccc(OCCO)cc1)N1[C@H](c3ccccc3)[C@H](c3ccccc3)OC(=O)[C@H]1[C@@H]2C(=O)N1CCN(c2ncccn2)CC1 | inactive: 1.03
7 | Cc1noc(C)c1NC(=O)Nc1ccc2c(c1)C(=O)N([C@@H](C)CO)C[C@H](C)[C@H](CN(C)C(=O)NC1CCCCC1)OCCCC[C@@H](C)O2 | inactive: 0.986
8 | COc1ccc(-c2cnc3c(c2)C(=O)N([C@H](C)CO)C[C@H](C)[C@H](CN(C)C(=O)Nc2cccc4ccccc24)O3)cc1 | inactive: 0.981
9 | COc1ccc([Si](C)(C)[C@H]2[C@H](CCO)O[C@@]3(C(=O)N(Cc4ccccc4)c4ccc(N5C(=O)COc6ccccc65)cc43)[C@@H]2C)cc1 | inactive: 1.01
10 | O=C(O)c1n[nH]c2c1CCC2 | inactive: 0.981
11 | COCC#Cc1ccc([C@H]2[C@H]3CN(C(=O)CN4CCOCC4)CC(=O)N3[C@H]2CO)cc1 | inactive: 1.01
12 | C[C@H]1CN([C@@H](C)CO)C(=O)c2cc(NC(=O)CCN3CCOCC3)ccc2O[C@@H]1CN(C)S(C)(=O)=O | inactive: 1.03
13 | O=C(Nc1ccccc1)c1cc2c(c(-c3cccc(-c4ccncc4)c3)n1)[C@@H](CCO)N(CC1CCOCC1)C2 | inactive: 1.03
14 | C[C@@H]1CCCCO[C@@H](CN(C)Cc2ccc(C(F)(F)F)cc2)[C@H](C)CN([C@@H](C)CO)C(=O)c2cc(NC(=O)Cc3ccccc3)ccc2O1 | inactive: 0.993
15 | C[C@H](CO)N1C[C@H](C)[C@@H](CN(C)S(=O)(=O)c2cn(C)cn2)Oc2c(NC(=O)CCCCCC(=O)Nc3ccccc3N)cccc2C1=O | inactive: 0.982
16 | C[C@H]1CCCCO[C@@H](CN(C)Cc2ccccc2)[C@@H](C)CN([C@@H](C)CO)C(=O)c2cc(NC(=O)Nc3ccc(C(F)(F)F)cc3)ccc2O1 | inactive: 0.995
17 | C[C@@H]1CN([C@H](C)CO)C(=O)c2cc(-c3ccc(C(=O)N(C)C)cc3)cnc2O[C@@H]1CN(C)C(=O)c1ccncc1 | inactive: 1.01
18 | C[C@@H]1CN([C@@H](C)CO)C(=O)Cc2cc(NS(=O)(=O)c3cn(C)cn3)ccc2O[C@@H]1CN(C)C(=O)Nc1ccc2c(c1)OCO2 | inactive: 0.973
19 | CC(C)[Si]1(C(C)C)O[C@@H](c2ccccc2)c2cc(-c3ccc(-c4ccc(Cl)c(Cl)c4)o3)nc(CCc3ccccc3)c21 | inactive: 0.989

Row | Compound | relative growth
20 | C[C@@H]1CN([C@@H](C)CO)C(=O)CCCn2nncc2CO[C@@H]1CN(C)S(=O)(=O)c1ccc(Oc2ccccc2)nc1 | inactive: 0.99
21 | CC(C)N1[C@@H]2OC(C3O[C@H]4[C@H](O3)N(C(C)C)S(=O)(=O)N4C(C)C)O[C@@H]2N(C(C)C)S1(=O)=O (some centres not stated) | inactive: 0.997
22 | C[C@@H]1CN([C@@H](C)CO)C(=O)Cc2cc(NC(=O)Cc3cn(C)c4ccccc34)ccc2O[C@@H]1CN(C)S(C)(=O)=O | inactive: 0.992
23 | CO[C@H]1CN(C)C(=O)c2ccc(NS(=O)(=O)c3ccccc3)cc2OC[C@@H](C)N(C(=O)NC(C)C)C[C@@H]1C | inactive: 0.986
24 | O=C(NCC(F)(F)F)[C@@H]1c2ccccc2C(=O)N(Cc2cc(F)cc(C(F)(F)F)c2)[C@H]1c1ccc(CO)cc1 | inactive: 0.978
25 | c1ccc(C2C3=C(CCCC3)SC3=C2CCCC3)cc1 | inactive: 1.03
26 | CN1CCN(C(=O)C[C@@H]2CC[C@@H]3[C@H](COC[C@H](O)CN3S(=O)(=O)c3cccc(Cl)c3)O2)CC1 | inactive: 0.98
27 | C[C@@H]1CCCCO[C@@H](CN(C)C(=O)Nc2ccccc2)[C@@H](C)CN([C@@H](C)CO)C(=O)c2cc(NC(=O)CCC(F)(F)F)ccc2O1 | inactive: 1.01
28 | COc1ccc2cc3[n+](cc2c1OC)CCc1cc2c(cc1-3)OCO2.[Cl-] | inactive: 1.06
29 | CNC(=S)NCc1ccco1 | inactive: 1
30 | Cc1noc(C)c1S(=O)(=O)N(C)C[C@@H]1Oc2c(NS(=O)(=O)c3cn(C)cn3)cccc2C(=O)N([C@H](C)CO)C[C@@H]1C | inactive: 0.976
31 | O=C(C[C@@H]1C[C@H]2c3cc(NS(=O)(=O)c4ccc(F)cc4)ccc3O[C@H]2[C@@H](CO)O1)NCc1ccccc1 | inactive: 0.988
32 | COc1cccc(NC(=O)N[C@H]2CC[C@H](CC(=O)N3CCN(C)CC3)O[C@H]2CO)c1 | inactive: 1
33 | Cc1cc(C(=O)Nc2cccc3c2O[C@@H](CN(C)Cc2ccccc2)[C@H](C)CN([C@@H](C)CO)C3=O)n(C)n1 | inactive: 1
34 | C[C@@H]1CN([C@H](C)CO)C(=O)c2cc(NC(=O)Nc3ccc4c(c3)OCO4)ccc2O[C@H]1CN(C)S(=O)(=O)c1cn(C)cn1 | inactive: 0.978
35 | C=CCNC(=O)[C@H]1[C@@H]2C(=O)O[C@@H](c3ccccc3)[C@@H](c3ccccc3)N2[C@@H](c2ccccc2OCCO)[C@]12C(=O)Nc1ccc(C#CC3(O)CCCCCC3)cc12 | inactive: 1.06
36 | C[C@@H]1CN([C@@H](C)CO)C(=O)c2c(c3ccccc3n2C)-c2ccccc2CO[C@H]1CN(C)Cc1cccc(C(=O)O)c1 | inactive: 0.987
37 | COc1ccc(NC(=O)N(C)C[C@H]2Oc3ccc(NC(=O)Cn4cnnn4)cc3C(=O)N([C@@H](C)CO)C[C@@H]2C)cc1 | inactive: 1.01
